This experiment relates to 885724-159-R-J1-PDC complex spheroid viability. As to the kind of experiment: Anticancer human tumor 885724-159-R-J1-PDC patient-derived pancreatic adenocarcinoma cell line growth inhibition [GQUAD]. The note with it: stronger effect = lower value. The text has this:
DNA G-quadruplex Stabilizer Agents in Combinations in Complex Spheroids
A high-throughput screen of multi-cell type tumor spheroids was designed to identify active combinations of DNA G-quadruplex stabilizer agents and targeted small molecules. Complex spheroids include a stromal component modeled by human endothelial cells (HUVEC) and fibroblasts modeled by human mesenchymal stem cells (MSCs). The concentration ranges selected for each drug and investigational agent were based upon clinically achievable concentrations if the clinical Cmax of the agent was known.
Compounds. The drugs and investigational agents: pidnarulex (CX-5461; NSC782164), APTO-253 (NSC789042), BRACO-19 (NSC847499), peposertib (NSC802822), ceralasertib (NSC780249), elimusertib (NSC800525), camonsertib (NSC841442), AZD-1390 (NSC803789), olaparib (NSC753686), talazoparib (NSC767125), ART-558 (NSC835418), sotorasib (NSC818433), MRTX-1133 (NSC836407), SN-38 (NSC673596), topotecan (NSC609699), etoposide (NSC141540), doxorubicin (NSC123127), gemcitabine (NSC613327), 5-fluorouracil (NSC19893), paclitaxel (NSC125973), vemurafenib (NSC761431), panobinostat (NSC761190), R-306465 (JNJ-16241199; NSC773264), adavosertib (NSC754352), TP-3654 (NSC805149), carboplatin (NSC241240), KSQ-4279 (NSC840948), and staurosporine (NSC755774) were obtained from the National Cancer Institute (NCI) Developmental Therapeutics Program Chemical Repository (34). The FDA-approved anticancer drug set is available from the NCI Developmental Therapeutics Program. […] The stock solutions were prepared in dimethyl sulfoxide (DMSO, Sigma-Aldrich, St. Louis, MO, cat. D2650) at 800-fold the tested concentration and stored at -70 degrees C prior to their use. All drugs and investigational agents were tested over a range starting from a high concentration at or near the clinical Cmax and decreasing in half-log increments. If the clinical Cmax for an agent had not been determined, the highest concentration tested was 10 microM.
2.3 Cell Culture. All cells were maintained in an incubator at 37 degrees C and 5% CO2 with 95% humidity. The PDC lines were cultured according to standard operating procedures established by the NCI PDMR. All PDCs were thawed and cultured in Matrigel-coated flasks prepared with a working solution of 1X Ham's F-12 nutrient mix, without supplementation (Invitrogen, cat. 11765054), 100 U/mL penicillin-streptomycin (Invitrogen, cat. 15140122), and 2.5% Matrigel (Corning Inc., cat. 354248) for the first three passages. […]

Two compounds from PubChem BioAssay AID2060502 (Molecular Pharmacology Branch, DTP, NCI, 2025) can be followed below.

What is called viability, T/C is the ratio of treated to control.

For part of its entries the source gives two or more results. This is not the full list of results. The source may hold further records. Values given together repeat one measurement in other runs, samples, wells, individuals or studies. Additions like (4×) count equal records among those shown.
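Also: spheroids exposed to agents for seven days before readout; percent of vehicle control viability where 100% = DMSO wells.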

On to `Cc1[nH]c2ccc(F)cc2c1-c1nc2c3cccnc3c3ncccc3c2[nH]1`, for which the viability, T/C is 95, 88.6, 96.2, 106, 83.8, 100, 92.3, 109, 108, 96.9, 94.4, 107% (compound alone 0.1 µM) and 42.7, 48.7, 44.2, 46.9, 61.3, 57.3, 67.8, 66.4, 26.9, 30.7, 24.3, 31.7% (compound alone 3.16 µM).
Regarding `Cc1cnc(CNC(=O)c2c(=O)c3ccc(N4CCCN(C)CC4)nc3n3c2sc2ccccc23)cn1`, the viability, T/C is, setting by setting: (compound alone 0.0316 µM) 108, 114, 89, 115, 96.7, 93, 91.7, 97.9, 113 (2×), 94.2, 106%; (compound alone 0.1 µM) 109, 110, 115, 95.9, 96.5, 97.3, 108, 100, 105, 121, 96.3, 93.9%.
